In the supplement of paper PMC4604168 (melanoma cell lines):
The list shows a part of the results. Repeats are few or missing, and single values can be far off.

Experiments:
Assay in all cases: cell count relative to DMSO control; melanoma cells; higher = more viable cells
Conditions in all cases: library dose: standard library concentration; 72 h
G361 = test system: G361
IPC-298 = test system: IPC-298
IST-MEL1 = test system: IST-MEL1
LB2518-MEL = test system: LB2518-MEL
LOXIMVI = test system: LOXIMVI
MEL-HO = test system: MEL-HO
MZ2-MEL = test system: MZ2-MEL
MeWo = test system: MeWo
RPMI7951 = test system: RPMI7951
RVH-421 = test system: RVH-421
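Further: cells treated in 1,536-well plates, then fixed and DAPI-stained, with nuclei counted from automated high-throughput microscope images.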

CN(c1ncccc1CNc1nc(Nc2ccc3c(c2)CC(=O)N3)ncc1C(F)(F)F)S(C)(=O)=O + O=S(=O)(c1ccccc1)N(CC(F)(F)F)c1ccc(C(O)(C(F)(F)F)C(F)(F)F)cc1 [T0901317] (first compound 0.4 µM, partner dose 7 µM)
cell count (G361): 57.2% | cell count (IPC-298): 69.4% | cell count (IST-MEL1): 69.2% | cell count (LB2518-MEL): 65.4% | cell count (LOXIMVI): 90.8% | cell count (MEL-HO): 67.6% | cell count (MZ2-MEL): 72.9% | cell count (MeWo): 77.3% | cell count (RPMI7951): 59.4% | cell count (RVH-421): 76.4%

NC1(c2ccc(-c3nc4ccn5c(=O)[nH]nc5c4cc3-c3ccccc3)cc2)CCC1 + Oc1nc(-c2ccc(C(F)(F)F)cc2)nc2c1CSCC2 [XAV939] (first compound 2 µM, partner dose 10 µM)
cell count (G361): 87.8% | cell count (IPC-298): 99.2% | cell count (IST-MEL1): 107% | cell count (LB2518-MEL): 94.3% | cell count (LOXIMVI): 105% | cell count (MEL-HO): 92.6% | cell count (MZ2-MEL): 116% | cell count (MeWo): 84% | cell count (RPMI7951): 103% | cell count (RVH-421): 96.3%

CCCS(=O)(=O)Nc1ccc(F)c(C(=O)c2c[nH]c3ncc(Cl)cc23)c1F + COC(=O)c1sccc1S(=O)(=O)Nc1ccc(Nc2ccccc2)cc1OC [GSK0660] (first compound 0.4 µM, partner dose 5 µM)
cell count (G361): 68.5% | cell count (IPC-298): 74.2% | cell count (IST-MEL1): 93.6% | cell count (LB2518-MEL): 85% | cell count (LOXIMVI): 105% | cell count (MEL-HO): 82.4% | cell count (MZ2-MEL): 69.1% | cell count (MeWo): 97.3% | cell count (RPMI7951): 99.5% | cell count (RVH-421): 65.2%

C=C(c1ccc(C(=O)O)cc1)c1cc2c(cc1C)C(C)(C)CCC2(C)C [Bexarotene] + c1cc(-c2cnn3cc(-c4ccc(OCCN5CCCCC5)cc4)cnc23)ccn1 [Dorsomorphin] (first compound 10 µM, partner dose 2 µM)
cell count (G361): 43.3% | cell count (IPC-298): 76.2% | cell count (IST-MEL1): 85% | cell count (LB2518-MEL): 95.8% | cell count (LOXIMVI): 100% | cell count (MEL-HO): 84% | cell count (MZ2-MEL): 82.3% | cell count (MeWo): 69% | cell count (RPMI7951): 69.9% | cell count (RVH-421): 103%

CS(=O)(=O)c1ccc(C(=O)Nc2ccc(Cl)c(-c3ccccn3)c2)c(Cl)c1 [vismodegib] + O=C(CCCCCCC(=O)Nc1ccccc1)NO [vorinostat] (first compound 5 µM, partner dose 0.4 µM)
cell count (G361): 60% | cell count (IPC-298): 81.6% | cell count (IST-MEL1): 272% | cell count (LB2518-MEL): 81.5% | cell count (LOXIMVI): 80.2% | cell count (MEL-HO): 84.4% | cell count (MZ2-MEL): 99% | cell count (MeWo): 75.5% | cell count (RPMI7951): 60% | cell count (RVH-421): 117%

NC1(c2ccc(-c3nc4ccn5c(=O)[nH]nc5c4cc3-c3ccccc3)cc2)CCC1 + C=CCNC1=C2C[C@@H](C)C[C@H](OC)[C@H](O)[C@@H](C)/C=C(\C)[C@H](OC(N)=O)[C@@H](OC)/C=C\C=C(/C)C(=O)NC(=CC1=O)C2=O [Tanespimycin] (first compound 2 µM, partner dose 0.01 µM)
cell count (G361): 73.9% | cell count (IPC-298): 92.6% | cell count (IST-MEL1): 41.6% | cell count (LB2518-MEL): 73.2% | cell count (LOXIMVI): 113% | cell count (MEL-HO): 77.9% | cell count (MZ2-MEL): 108% | cell count (MeWo): 77.4% | cell count (RPMI7951): 35.5% | cell count (RVH-421): 72.8%

NC1(c2ccc(-c3nc4ccn5c(=O)[nH]nc5c4cc3-c3ccccc3)cc2)CCC1 + Cc1cc([N+](=O)[O-])ccc1NS(=O)(=O)c1cc(Cl)ccc1Cl [FH535] (first compound 2 µM, partner dose 5 µM)
cell count (G361): 36.2% | cell count (IPC-298): 45.4% | cell count (IST-MEL1): 44.4% | cell count (LB2518-MEL): 60.5% | cell count (LOXIMVI): 55.3% | cell count (MEL-HO): 34.2% | cell count (MZ2-MEL): 55.6% | cell count (MeWo): 61.4% | cell count (RPMI7951): 102% | cell count (RVH-421): 66%

CN(c1ncccc1CNc1nc(Nc2ccc3c(c2)CC(=O)N3)ncc1C(F)(F)F)S(C)(=O)=O + CCCCCCCCCCCC1=C(O)C(=O)C=C(O)C1=O [Embelin] (first compound 0.4 µM, partner dose 6 µM)
cell count (G361): 71.1% | cell count (IPC-298): 64.9% | cell count (IST-MEL1): 66.1% | cell count (LB2518-MEL): 62.2% | cell count (LOXIMVI): 83.8% | cell count (MEL-HO): 66.3% | cell count (MZ2-MEL): 77% | cell count (MeWo): 89.1% | cell count (RPMI7951): 67.4% | cell count (RVH-421): 73.3%

CN(c1ncccc1CNc1nc(Nc2ccc3c(c2)CC(=O)N3)ncc1C(F)(F)F)S(C)(=O)=O + CNC(=O)c1cc(Oc2ccc(NC(=O)Nc3ccc(Cl)c(C(F)(F)F)c3)cc2)ccn1 [sorafenib] (first compound 0.4 µM, partner dose 2 µM)
cell count (G361): 71.3% | cell count (IPC-298): 92.1% | cell count (IST-MEL1): 85.1% | cell count (LB2518-MEL): 95.1% | cell count (LOXIMVI): 118% | cell count (MEL-HO): 84.1% | cell count (MZ2-MEL): 107% | cell count (MeWo): 85.2% | cell count (RPMI7951): 47.5% | cell count (RVH-421): 87.6%

CS(=O)(=O)c1ccc(C(=O)Nc2ccc(Cl)c(-c3ccccn3)c2)c(Cl)c1 [vismodegib] + CC(=O)c1c(C)c2cnc(Nc3ccc(N4CCNCC4)cn3)nc2n(C2CCCC2)c1=O [palbociclib] (first compound 5 µM, partner dose 0.2 µM)
cell count (G361): 58.9% | cell count (IPC-298): 67.3% | cell count (IST-MEL1): 78.4% | cell count (LB2518-MEL): 66% | cell count (LOXIMVI): 122% | cell count (MEL-HO): 87.9% | cell count (MZ2-MEL): 72.1% | cell count (MeWo): 64.1% | cell count (RPMI7951): 78.8% | cell count (RVH-421): 81.3%

CS(=O)(=O)c1ccc(C(=O)Nc2ccc(Cl)c(-c3ccccn3)c2)c(Cl)c1 [vismodegib] + CN(C)S(=O)(=O)c1ccc2c(c1)/C(=C/c1cc3c([nH]1)CCCC3)C(=O)N2 [SU6656] (first compound 5 µM, partner dose 2 µM)
cell count (G361): 58.9% | cell count (IPC-298): 101% | cell count (IST-MEL1): 76.7% | cell count (LB2518-MEL): 81.2% | cell count (LOXIMVI): 101% | cell count (MEL-HO): 84.6% | cell count (MZ2-MEL): 102% | cell count (MeWo): 84.1% | cell count (RPMI7951): 61.4% | cell count (RVH-421): 84.1%
